Data from PubChem BioAssay AID360 (National Center for Advancing Translational Sciences (NCATS), 2006).
In all, about 48,000 compounds went through this assay and about 550 (1.1%) were called active. Inconclusive results (about 4%) are left out. Cut-off read from the data, not from the text of the source: active = potency below about 15 µM; inconclusive = mostly about 16 µM to 33 µM; inactive = weaker than that. Some of the results follow.

molecular target: Lysosomal acid glucosylceramidase (Homo sapiens) (UniProt P04062); experiment: Glucocerebrosidase; conditions: purified enzyme, resorufin glucoside fluorescence (screen aimed at inhibitors), 20 min;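 note: the screen sought inhibitors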
How it was run: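 Wild-type enzyme at 0.2 nM final in 50mM citric acid/KH2PO4, 10mM sodium taurocholate, 0.01% tween-20, pH 5.9, with resorufin beta-D-glucopyranoside at 30 uM final. Compounds titrated, 20 min at RT, red fluorescence read; AC50 from titration.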
Potency is the fitted concentration of half-maximal effect.

Chain of UniProt P04062 (P04062 whole entry, looked up): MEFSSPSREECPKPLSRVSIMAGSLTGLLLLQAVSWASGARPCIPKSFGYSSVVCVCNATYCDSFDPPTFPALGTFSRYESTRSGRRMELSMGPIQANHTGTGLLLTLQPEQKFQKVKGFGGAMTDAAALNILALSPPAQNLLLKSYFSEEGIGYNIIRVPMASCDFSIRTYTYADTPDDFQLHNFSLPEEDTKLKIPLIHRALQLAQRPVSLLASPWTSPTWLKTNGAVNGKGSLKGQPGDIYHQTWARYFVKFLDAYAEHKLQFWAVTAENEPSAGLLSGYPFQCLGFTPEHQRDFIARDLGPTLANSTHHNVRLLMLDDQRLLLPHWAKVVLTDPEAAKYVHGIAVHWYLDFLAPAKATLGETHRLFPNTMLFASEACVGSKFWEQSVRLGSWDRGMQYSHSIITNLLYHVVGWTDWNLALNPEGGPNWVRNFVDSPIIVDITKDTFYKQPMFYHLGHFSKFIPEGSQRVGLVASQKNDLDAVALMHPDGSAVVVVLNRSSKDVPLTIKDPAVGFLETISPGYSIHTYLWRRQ

Row | Compound | Potency
1 | CN1CCN(c2c[nH]c(=O)[nH]c2=O)CC1 | inactive: > 76.9 µM
2 | O=C(c1cc2ccccc2oc1=O)N1CCC2(CC1)OCCO2 | inactive: > 76.9 µM
3 | COC(=O)C(C)Oc1cc(C)cc2oc(=O)c3c(c12)CCCC3 (stereo unspecified) | inactive: > 76.9 µM
4 | COc1ccc(CCNC(=O)c2c(N)n(CCN3CCOCC3)c3nc4ccccc4nc23)cc1 | inactive
5 | COC(=O)C1C2c3ccccc3OC1(C)N=c1s/c(=C/c3cn(C)nc3C)c(=O)n12 (stereo unspecified) | inactive: > 76.9 µM
6 | Cn1c(C(=O)N2CCC(C(=O)N3CCC4(CC3)OCCO4)CC2)cc2sccc21 | inactive: > 76.9 µM
7 | COc1ccc(S(=O)(=O)Cc2ccc(C(=O)N3CCC4(CC3)OCCO4)o2)cc1 | inactive: > 76.9 µM
8 | Cc1nc2ncnn2c(C)c1CCC(=O)N1CCC2(CC1)OCCO2 | inactive: > 76.9 µM
9 | CC(=NCCCN1CCOCC1)c1c(O)[nH]c(=O)[nH]c1=O | inactive: > 76.9 µM
10 | CCN(CC)c1ccc(N=Cc2c(O)n(CCC3=CCCCC3)c(=O)[nH]c2=O)cc1 | inactive: > 76.9 µM
11 | CCOC(=O)C1SC2(C(F)(F)F)CC1(O)c1c(C)cc(C)nc1O2 (stereo unspecified) | inactive: > 76.9 µM
12 | CCOC(=O)C1=C(N)Oc2cc(C)oc(=O)c2C12C(=O)N1c3c(cccc32)C(C)CC1(C)C (stereo unspecified) | inactive: > 76.9 µM
13 | CCCCn1c(O)c(C(CC)=Nc2cccc(C(=O)O)c2)c(=O)[nH]c1=O | inactive: > 76.9 µM
14 | CCCCn1c(O)c(C(C)=Nc2ccc(OCC)cc2)c(=O)[nH]c1=O | inactive: > 76.9 µM
15 | CC(=O)c1c(O)n(C)c(=S)n(-c2ccccc2)c1=O | inactive: > 76.9 µM
16 | O=C(CNS(=O)(=O)c1ccc(Br)s1)N1CCC2(CC1)OCCO2 | inactive: > 76.9 µM
17 | CCCCn1c(O)c(C(C)=Nc2ccc(C(=O)O)cc2)c(=O)[nH]c1=O | inactive: > 76.9 µM
18 | O=C(NC1(C(F)(F)F)Oc2ccccc2O1)N1CCC2(CC1)OCCO2 | inactive: > 76.9 µM
19 | OC1(CN2CCOCC2)C2CC3CC(C2)CC1C3 (stereo unspecified) | inactive: > 76.9 µM
20 | CSC(=Nc1ccccc1)c1c(O)n(C)c(=O)n(C)c1=O | inactive: > 76.9 µM
21 | COCCOC(=O)C1=C(C)OC(N)=C(C(=O)OC)C12C(=O)Nc1ccccc12 (stereo unspecified) | inactive: > 76.9 µM
22 | O=C1CSC2N1CCNC21CCCCC1 (stereo unspecified) | inactive: > 76.9 µM
23 | CN1CCN(c2nccc3c2ncn3C)CC1 | inactive: > 76.9 µM

Row | Compound | Potency
24 | Cc1ccc(Cn2nnnc2CN2CCC(n3nnc4ccccc43)CC2)cc1 | inactive: > 76.9 µM
25 | CCCCn1c(O)c(C(C)=NC(Cc2c[nH]c3ccccc23)C(=O)OC)c(=O)[nH]c1=O (stereo unspecified) | inactive: > 76.9 µM
26 | COc1ccc(C(=O)N2CCOCC2)cc1S(=O)(=O)N1CCC(C)CC1 | inactive: > 76.9 µM
27 | CC1(C)CC(=O)C(C2(O)C(=O)NC(=O)NC2=O)=C(O)C1 | inactive: > 76.9 µM
28 | CCNc1ccc(P(=S)(N(C)C)N(C)C)cc1 | inactive: > 76.9 µM
29 | CCOP1(=S)Oc2cc3c(cc2C(C(=O)OC)(C(F)(F)F)O1)OCO3 (stereo unspecified) | inactive
30 | C=CCn1c(O)c(C(CC)=NCCCO)c(=O)[nH]c1=O | inactive: > 76.9 µM
31 | O[C@H]1C2CCC1C(N1CCCCC1)CC2 (stereo partly specified) | inactive: > 76.9 µM
32 | CCN(CC)CCOC(=O)c1cc2cc(COC)ccc2o1 | inactive: > 76.9 µM
33 | COc1cccc(Oc2c(C)oc3cc(OC(=O)N(C)C)ccc3c2=O)c1 | inactive: > 76.9 µM
34 | O=C(O)C(O)(c1ccccc1)C1CCCC1 (stereo unspecified) | inactive: > 76.9 µM
35 | CC(=NCCO)c1c(O)n(C2CCCCC2)c(=O)[nH]c1=O | inactive: > 76.9 µM
36 | CCCCn1c(C)c(C(=O)O)c2cc(OC)ccc21 | inactive: > 76.9 µM
37 | Cc1ccc2cccc(OC(=O)N3CCCC3)c2n1 | inactive: > 76.9 µM
38 | CCOC(=O)N(C)c1ccc(C(O)(C(=O)OCC)C(F)(F)F)cc1 (stereo unspecified) | inactive: > 76.9 µM
39 | N[C@@H](Cc1c[nH]c2ccccc12)c1nnc(SCc2ccc(Cl)cc2)o1 | inactive
40 | CCOC(=O)CCN=Cc1c(O)n(-c2ccc(Br)cc2)c(=O)[nH]c1=O | inactive: > 76.9 µM
41 | COCCCn1c(N)c(C(=O)OCCOC)c2nc3ccccc3nc21 | inactive: > 76.9 µM
42 | O=C(Cn1ncc2c3ccccc3n(Cc3ccccc3)c2c1=O)N1CCC2(CC1)OCCO2 | inactive: > 76.9 µM
43 | COc1ccc(CCC(=O)N2CCC3(CC2)OCCO3)cc1 | inactive: > 76.9 µM
44 | ClC1=CCC2CN(CCN3CCCCC3)CC2C1 (stereo unspecified) | inactive: > 76.9 µM
45 | O=C1N(CN2CCOCC2)c2ccccc2C1(O)c1c[nH]c2ccccc12 (stereo unspecified) | inactive: > 76.9 µM
46 | CC1(C)C2CC=C(CN3CCOCC3)C1C2 (stereo unspecified) | inactive: > 76.9 µM

Row | Compound | Potency
47 | CN1C(=O)N(C)C(=O)C2(Cc3c(nc4ccccn4c3=O)N3CCC(Cc4ccccc4)CC32)C1=O (stereo unspecified) | active: 13.3 µM
48 | CCCCn1c(O)c(C=Nc2c(C)n(C)n(-c3ccccc3)c2=O)c(=O)[nH]c1=O | inactive: > 76.9 µM
49 | CCc1nnc(NC(=O)CCc2nc(C3=CCN(C)CC3)no2)s1 | inactive: > 76.9 µM
50 | Cc1ccc(C)c(NC2=NCCCS2)c1 | inactive: > 76.9 µM
51 | O=P(C(c1c[nH]c2ccccc12)N1CCOCC1)(N1CCOCC1)N1CCOCC1 (stereo unspecified) | inactive: > 76.9 µM
52 | Cc1ccc2c(c1)N(CCC(=O)N1CCC3(CC1)OCCO3)C(=O)CO2 | inactive: > 76.9 µM
53 | Cc1[nH]c2c(C(F)(F)F)cccc2c1CCN | inactive: > 76.9 µM
54 | OCC1(CO)COC(c2cccnc2)N1 (stereo unspecified) | inactive: > 76.9 µM
55 | CCN(CC)CCCN=C(C)c1c(O)n(C2CCCCC2)c(=O)[nH]c1=O | inactive: > 76.9 µM
56 | CC(=O)N1CCN(c2ccc(N=Cc3c(O)n(-c4ccc(Cl)cc4)c(=O)[nH]c3=O)cc2)CC1 | inactive: > 76.9 µM
57 | CCc1nc2ccccc2c(=O)n1-c1cccc(OC)c1 | inactive: > 76.9 µM
58 | CC(=NCc1ccc2c(c1)OCO2)c1c(O)n(C)c(=O)n(C)c1=O | inactive: > 76.9 µM
59 | CN(C)P(=NC(=S)c1cccn1C)(N(C)C)N(C)C | inactive: > 76.9 µM
60 | CCOc1ccccc1-n1c(O)c(C=NCCCN(CC)CC)c(=O)[nH]c1=O | inactive: > 76.9 µM
61 | COc1cc(OC)c(OC)cc1CNC(C)C(O)c1ccccc1 (stereo unspecified) | inactive: > 76.9 µM
62 | COc1ccccc1-n1c(-c2ccoc2)nc2ccccc2c1=O | inactive: > 76.9 µM
63 | NCCCP(=O)(O)CCc1ccccc1 | inactive: > 76.9 µM
64 | CSc1nnc(C2CCNCC2)n1C | inactive: > 76.9 µM
65 | CC(C)CCn1c(N)c(C(=O)OCC2CCCO2)c2nc3ccccc3nc21 (stereo unspecified) | inactive: > 76.9 µM
66 | CCC(=NCCC1=CCCCC1)c1c(O)[nH]c(=O)[nH]c1=O | inactive: > 76.9 µM
67 | NC1CCCCC1N=Cc1c(O)n(CCc2ccc(F)cc2)c(=O)[nH]c1=O (stereo unspecified) | inactive: > 76.9 µM
68 | COc1ccc(S(=O)(=O)NCc2ccc(C(=O)N3CCC4(CC3)OCCO4)cc2)cc1 | inactive: > 76.9 µM
69 | CCOC(=O)N(CC)c1ccc(C(O)(C(=O)OC)C(F)(F)F)cc1 (stereo unspecified) | inactive: > 76.9 µM

Row | Compound | Potency
70 | CCC(=Nc1ccccc1NC(C)=O)c1c(O)n(C)c(=O)n(C)c1=O | inactive: > 76.9 µM
71 | O=C(Cc1ccccc1)Oc1ccccc1N1C(=O)CCC1=O | inactive: > 76.9 µM
72 | Cn1c(O)c(C=NC2CC3CCC2(C)C3(C)C)c(=O)[nH]c1=O (stereo unspecified) | inactive: > 76.9 µM
73 | COc1ccc(CCn2c(O)c(C=NCCCO)c(=O)[nH]c2=O)cc1OC | inactive: > 76.9 µM
74 | CCC(=NC1CC1)c1c(O)n(-c2ccc(OC)cc2)c(=O)[nH]c1=O | inactive: > 76.9 µM
75 | CCC(=NCC1CCCO1)c1c(O)n(-c2ccc(Cl)cc2)c(=O)[nH]c1=O (stereo unspecified) | inactive: > 76.9 µM
76 | O=P1(Nc2cccnc2)COc2ccccc2OC1 | inactive: > 76.9 µM
77 | CCOC(=O)c1c(N)n(CCN2CCCCC2)c2nc3ccccc3nc12 | inactive: > 76.9 µM
78 | O=C1C2CCCN2C(c2cccnc2)N1c1nccs1 (stereo unspecified) | inactive: > 76.9 µM
79 | Cc1c(C(=O)N2CCC3(CC2)OCCO3)oc2ccc(S(=O)(=O)N3CCOCC3)cc12 | inactive: > 76.9 µM
80 | O=C(c1ccc(Cl)cc1)C12CN3CN(CN(C3)C1)C2 | inactive: > 76.9 µM
81 | CC(=NCC1CCCO1)c1c(O)n(Cc2ccccc2)c(=O)[nH]c1=O (stereo unspecified) | inactive: > 76.9 µM
82 | CCCCCCN=C(C)c1c(O)n(CCCC)c(=O)[nH]c1=O | inactive: > 76.9 µM
83 | CC(C)(C)c1nc(N2CCN(C(=O)c3ccco3)CC2)c2nnn(Cc3ccccc3Cl)c2n1 | inactive: > 76.9 µM
84 | O=C(CCCC1=NS(=O)(=O)c2ccccc2N1)N1CCC2(CC1)OCCO2 | inactive: > 76.9 µM
85 | CN(C)C(=O)Oc1ccc(Cl)c2ccccc12 | inactive: > 76.9 µM
86 | COc1ccccc1N=C1SCCCN1C | inactive: > 76.9 µM
87 | CC12CCCCC1=[N+]([O-])CN2O (stereo unspecified) | inactive: > 76.9 µM
88 | O=C1NC(=O)[C@]2(Cc3ccccc3N3CCN(c4ccccc4)CC32)C(=O)N1Cc1ccccc1 (stereo partly specified) | inactive: > 76.9 µM
89 | COc1cccc(C2=NOC(C(=O)N3CCC4(CC3)OCCO4)C2)c1 (stereo unspecified) | inactive: > 76.9 µM
90 | Cc1ccc(C2N(c3cc(C)on3)C(=O)C3CCCN32)cc1 (stereo unspecified) | inactive: > 76.9 µM
91 | CN1C(=O)N(C)C(=O)C2(Cc3cc(N)ccc3N3CCN(c4ccccc4F)CC32)C1=O (stereo unspecified) | inactive: > 76.9 µM
